This test relates to NCI-H322M lung. Nature of the test: NCI anticancer screen, dose series, 48 h.

Molecules are shown by their SMILES. “And” between values parts separate entries of the source, which are not always exact repeats. Identical values can stand only once.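 Method: 48-hour compound exposure of cells in 96-well plates, five concentrations, linear interpolation of endpoints. GI50 = concentration required for 50% inhibition of growth. TGI is the concentration that stops growth completely.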

87 compounds from PubChem BioAssay (NCI) can be followed below.

In the case of `CC(=O)[CH-]C(=O)c1ccccc1.CC(=O)[CH-]C(=O)c1ccccc1.COc1cccc([O-])c1[O-].[Ti+4]`, the GI50 was 73.9 µM and the TGI was more than 100 µM.

`CC1=NN(c2nc(N)nc(/C(C#N)=C/c3ccc([N+](=O)[O-])o3)n2)C(C)(C)C1` gave a TGI of more than 55.9 µM. In the case of `CCCCC1Cc2ccccc2-c2n1c1ccccc1[n+]2C` (configuration not stated), the TGI was more than 100 µM. Same read-out and setting: to `CC(C)(N)CO[C@H]1C[C@H]2CC[C@@]1(C)C2(C)C` belongs 43.2 µM. In turn, `COc1ccc(C2=C(Cl)c3cc(OC)c(OC)cc3C2=O)cc1OC` had a TGI of more than 100 µM. Still for that read-out and setting: the same measure for `Cc1c(/C=N/NC(=S)Nc2cccc(Cl)c2)c(=O)n(-c2ccccc2)n1C`: more than 100 µM. Consider `CC(=O)Nc1ccc(-c2c3nc(c(-c4cc5ccccc5[n+](C)c4)c4ccc([nH]4)c(-c4ccc(NC(C)=O)cc4)c4nc(c(-c5cc6ccccc6[n+](C)c5)c5ccc2[nH]5)C=C4)C=C3)cc1`, for which the GI50 was more than 50 µM and the TGI is more than 50 µM. On to `CN1C(OCc2ccccc2)c2c(ccc3c2OCO3)C2C=Cc3cc4c(cc3C21)OCO4` (configuration not stated), for which the TGI turned out to be 2.48 µM. Consider `COc1cc2c(c(OC)c1OC)C(=O)CC(c1cccc(NC(=O)c3ccc(Br)cc3)c1)O2` (configuration not stated), for which the GI50 is 5.5 µM and the TGI was more than 100 µM.

The compound `O=c1cc(CO)n(CCc2c[nH]c3ccccc23)cc1O` showed a TGI of more than 100 µM. `CC(=O)OCCOCNC(=S)N/N=C/c1ccc2ccccc2n1`: the TGI was more than 100 µM. Consider `N#Cc1nc(C2CC2)oc1N`, for which the TGI was more than 100 µM.

The compound `Cc1cc(C)nc(NS(=O)(=O)c2ccc(NN=c3c4ccccc4n(C)c4ccccc34)cc2)n1` displayed a TGI of more than 100 µM.

On to `Cc1nc(Cl)c2sc(=S)n(-c3ccc(F)cc3)c2n1`, for which the TGI worked out at 24 µM.

On to `O=C1CSC(/C(=C/c2ccccc2)c2nc3ccccc3[nH]2)=N1`, for which the TGI was more than 100 µM.

With `Cc1cc(=O)oc2c(CN3CCCCC3)c(O)ccc12`, the TGI was more than 100 µM.

As to `N=Nc1c(OC(=O)Nc2ccccc2)[nH]c2ccccc12`, the TGI is more than 100 µM. `N#Cc1nc(CSCc2ccccc2)oc1N`: the TGI is more than 100 µM. `C=C[C@@]1(C)CCC2(O)C(CCC3C2(C)CCC[C@@]3(C)COC(=O)CC(=O)OC)C1` (some centres not stated) registered a TGI of more than 100 µM. `CC1=CCC2(C#N)CCC1C2O` (configuration not stated) displayed a TGI of more than 100 µM. The same measure, in the same setting: to `Cc1ccc(C2CC(c3ccc([N+](=O)[O-])cc3)=Nc3ccccc3S2)cc1` (configuration not stated) belongs more than 100 µM.

Turning to `CN(C)c1ccc2c(c1)CN1C(=O)c3ccccc3C1=N2`, the GI50 was more than 100 µM and the TGI was more than 100 µM.

For `COc1cc(N2CCN(C(C)C)CC2)ccc1Nc1nc(Nc2cccc3ncccc23)c2cc[nH]c2n1`, the GI50 is 7.33 µM and the TGI was more than 25 µM. `CC1(C)OC(=O)[C@@](C)([C@H](O)c2ccccc2)O1` displayed a TGI of more than 100 µM.

Turning to `C#CCSc1nc(N)c2ncn(C3OC(CO)C(O)C3O)c2n1` (configuration not stated), the TGI is more than 100 µM.

As to `NC(N)=NS(=O)(=O)c1ccc(Nc2c3ccccc3nc3c(C(=O)N4CCN(CCO)CC4)cccc23)cc1`, the TGI is more than 100 µM.

Consider `O=C(c1ccccc1)C(c1ccccc1)C1(O)C(=O)Nc2ccccc21` (configuration not stated), for which the TGI is more than 100 µM.

`Cc1cccc2[nH]c3cc(O)cc(O)c3c(=O)c12` showed a TGI of more than 10 µM. On to `N#CNC(N)=NCCO`, for which the TGI is more than 100 µM. Still for that read-out and setting: to `CC1=C(C(=O)N[C@@H](Cc2ccccc2)C(=O)O)N2C(=O)[C@@H](NC(=O)[C@@H](N)CC(C)C)[C@H]2SC1` belongs more than 100 µM; to `O=S1CSCS1` (configuration not stated), more than 100 µM. Consider `O=C(/C=C/C12c3ccccc3C(c3ccccc31)C1C(=O)N(c3ccccc3)C(=O)C12)c1ccc(Cl)cc1` (configuration not stated), for which the GI50 was 2.64 µM and the TGI is more than 100 µM.

Turning to `O=C(CBr)N1CCC2(CC1)SSC1(CCN(C(=O)CBr)CC1)S2`, the TGI is 7.86 µM. `O[C@@]1(c2cccs2)c2cccc(Cl)c2[C@](O)(c2cccs2)c2cccc(Cl)c21` came in with a TGI of more than 100 µM. As for `COc1ccc(-c2nn(-c3ccc(NC(=O)c4ccc(Cl)c(C(F)(F)F)c4)cc3)cc2-c2ccncc2)cc1Cl`, the GI50 was 7.78 µM and the TGI was more than 100 µM.

For `NC(C/[N+]([O-])=N/O)C(=O)O` (configuration not stated), the GI50 is 4.37 µM and 3.72 µM and 10.2 µM; the TGI is more than 500 µM. Consider `COc1cc(O)c2c(=O)c(OC)c(-c3ccc4c(c3)OCO4)oc2c1`, for which the TGI was more than 100 µM.

`COc1ccc2c(c1)[C@]1(C[C@H]1c1ccc3c(/C=C/c4ccc(CN5C[C@@H](C)O[C@@H](C)C5)cc4)n[nH]c3c1)C(=O)N2`: the GI50 was more than 100 µM and the TGI is more than 100 µM. In turn, `Cc1ccc(N/C(Sc2ccccc2)=C(/C(Cl)=C(Cl)Cl)[N+](=O)[O-])c(C)c1` had a TGI of 66.9 µM.

For `CCCCCCCC(=O)OC[C@@H](C[As](=O)(O)O)OC(=O)CCCCCCC`, the TGI came to 27 µM. On the same count and under the same terms, to `CC(=O)NC1=C(C)C(=O)c2c(nc3n2CCC3OC(=O)c2ccccc2)C1=N` (configuration not stated) belongs 7.23 µM; to `O=C(CCN1CCOCC1)Nc1ccc(F)cc1F`, more than 100 µM; to `C=CCN1C(=O)CC1N(CC=C)S(=O)(=O)c1ccc(C)cc1` (configuration not stated), more than 100 µM. Still for that read-out and setting: to `COC1(C(C)(C)C)C=C(C(C)(C)C)P(=O)(O)O1` (configuration not stated) belongs more than 100 µM; to `CCCN(CCCN)/[N+]([O-])=N\O`, more than 100 µM; to `COC(=O)Nc1nc2ccc(Oc3ccc4nc(NC(=O)OC)[nH]c4c3)cc2[nH]1`, more than 100 µM.

Compound `Cc1nc2ccccc2c(=O)n1-c1n[nH]c2ccccc12` came in with a TGI of more than 100 µM.

`O=C(c1ccco1)C1CC(c2ccc3ccccc3c2O)=NN1` (configuration not stated) came in with a TGI of more than 100 µM. Same read-out and setting: the same measure for `[N-]=[N+]=Nc1ccc(NCCCCCC(=O)ON2C(=O)CCC2=O)c([N+](=O)[O-])c1`: more than 100 µM. Same read-out and setting: to `CNC(C)Cc1ccccc1O` (configuration not stated) belongs more than 100 µM. Still for that read-out and setting: the same measure for `Clc1ccccc1C(n1ncc2ccccc21)n1ncc2ccccc21`: more than 100 µM; for `O=S1(=O)NNC(=NCc2ccc(Cl)c(Cl)c2)c2ccccc21`: more than 100 µM.

For `Cc1oc2nc[nH]c(=O)c2c1C(=O)/C=C/c1ccc(Cl)cc1`, the GI50 was 2.32 µM and the TGI amounted to 10.9 µM. In the case of `COc1cc2cc[n+](C)c(Cc3ccccc3)c2cc1OC`, the TGI is more than 100 µM.

`C[C@]12CCC3c4ccc(O)cc4CC[C@H]3C1CC(=O)N(N)C2=O` (some centres not stated) yielded a TGI of more than 100 µM. The same measure, in the same setting: the same measure for `O=C(N/C(=C\c1ccccc1[N+](=O)[O-])c1nc2ccccc2[nH]1)c1ccccc1`: more than 100 µM. Still for that read-out and setting: to `CCOC(=O)N1CCN(c2c(C)nc(C)[nH]c2=O)CC1` belongs more than 100 µM.

On to `N#CC(C#N)=Cc1c(-c2ccccc2)[nH]c2ccccc12`, for which the GI50 is 11.3 µM and the TGI was more than 93.8 µM. Compound `CCn1nc(C)c2c1C(=O)NC(C)C(=O)N2` (configuration not stated) displayed a TGI of more than 100 µM.

Take `CN1CCN(c2ccc(-c3ccc4ncc(C#N)c(Nc5ccc(F)c(Cl)c5)c4c3)cc2)CC1`: the GI50 was 0.42 µM and the TGI was found to be 13.1 µM.

For the compound `Clc1cc(OCc2nn3c(Cc4ccccc4)nnc3s2)ccc1OCc1nn2c(Cc3ccccc3)nnc2s1`, the TGI is more than 100 µM.

The compound `CCC[C@H](O)[C@@H](CNc1cc(NC(C)=O)nc(NC(C)=O)n1)N(Cc1ccccc1)Cc1ccccc1` registered a TGI of 75 µM. Still for that read-out and setting: to `CC1C2=C(CC(C)(C)CC2=O)NC2=C1C(=O)CC(C)(C)C2` belongs more than 100 µM. On to `CN(CCC#N)c1ccc(/C=C(\C#N)c2cccc(C(F)(F)F)c2)cc1`, for which the GI50 was more than 100 µM and the TGI was more than 100 µM. As to `Cc1cc2cccnc2c2ncccc12`, the GI50 is 0.597 µM and the TGI was 4.96 µM. `Nc1ccc(-c2ncc3cc(-c4cccc(-c5cc6cnc(-c7ccc(N)cc7)nc6c6ccccc56)c4)c4ccccc4c3n2)cc1` showed a TGI of more than 100 µM. Turning to `CN1CCN(CCCOc2cccc3nc(Nc4ccc(Cl)c(F)c4)ccc23)CC1`, the GI50 is 1.7 µM and the TGI is 4.28 µM. For the compound `CN(C)CCNc1ccc2ncnc3c2c1C(=O)c1ccccc1-3`, the TGI was determined as 1.72 µM.

Compound `Nc1ncnc2c1ncn2C1OC(CSC(F)(F)F)C(O)C1O` (configuration not stated) registered a TGI of more than 100 µM. The same measure, in the same setting: the same measure for `Cc1cccc(-n2c(C)nc3ccc(NC4OC(CO)C(O)C(O)C4O)cc3c2=O)c1` (configuration not stated): more than 100 µM; for `C/C(=N/NC(=O)c1ccncc1)c1ccc(NC(=O)C(=O)Nn2c(=S)[nH]c3ccccc3c2=O)cc1`: more than 100 µM; for `CCOC(=O)[C@@H]1C[C@H]1c1ccc(O)c(O)c1`: more than 100 µM. Still for that read-out and setting: to `COC(=O)CCC(C)[C@H]1CCC2C3C(C[C@H](OC(C)=O)[C@@]21C)[C@@]1(C)CCC2(C[C@H]1C[C@H]3OC(C)=O)OOC1(CCC(C)CC1)OO2` (some centres not stated) belongs more than 100 µM.

For `Cc1onc(-c2c(F)cccc2Cl)c1-c1ncc(-c2ccc(Cl)cc2)o1`, the GI50 is more than 100 µM and the TGI is more than 100 µM.

`CC(N=C(N)N)C(=O)O` (configuration not stated): the TGI was more than 100 µM. On to `NC(=O)c1cc(-c2ccncc2)cc(-c2ccccc2)c1N`, for which the GI50 was more than 24.1 µM and the TGI is more than 25 µM. As for `CNC(=S)N/N=C1\CC(c2ccccc2)Oc2ccccc21` (configuration not stated), the TGI was more than 100 µM. For the compound `CCN(CC)C(=O)CC1=C(C)/C(=C/c2[nH]c(-c3ccc[nH]3)cc2OC)N=C1C`, the GI50 was 0.929 µM and the TGI is more than 100 µM. Consider `Cc1nc2ccccc2c(=O)n1/N=C(\N=Nc1cc(Cl)ccc1Cl)c1cccc(-c2ccco2)c1`, for which the TGI is more than 100 µM.

For the compound `CC1(C)OCC2(CO1)CSCCCSCC1(COC(C)(C)OC1)CSCCCSC2`, the TGI is more than 100 µM. In the case of `CC1=CC[C@@H]2C(C)(C)C(=O)CC[C@@]2(C)[C@@H]1COc1ccc2ccc(=O)oc2c1`, the GI50 is 22.7 µM and the TGI amounted to 81.3 µM. In turn, `CCC(CS(=O)(=O)O)[N+](=O)[O-]` (configuration not stated) had a TGI of more than 100 µM.

For the compound `C[C@@]12c3c4ccc(C=O)c3Oc3ccc(C=O)c(c31)Oc1c(C=O)ccc(c12)O4`, the TGI is more than 100 µM.

Consider `COc1cccc(/C(CC(O)(C(F)(F)F)C(F)(F)F)=N\N(C)C)c1`, for which the TGI is more than 100 µM.

Compound `O=c1oc2cc(N=Cc3ccccc3Cl)ccc2c2ccccc12` had a TGI of more than 100 µM. In the case of `C=C[C@@H](OCOCC[Si](C)(C)C)[C@@H](CC)OC(CCCOC(=O)C(C)(C)C)OC` (some centres not stated), the TGI is more than 100 µM.

Take `C=CCn1c(=O)c2cnc(Nc3ccc(N4CCN(C)CC4)cc3)nc2n1-c1ccc2c(n1)[C@@](O)(CC)CC2`: the GI50 was 0.298 µM and the TGI was determined as 15.8 µM.
